# In the supplement of paper PMC8728848:
# Some of the results follow.
# Key:
# Assay in all cases: glycan array binding signal (z-score within array); higher = stronger binding
# Conditions in all cases: glycan notation: IUPAC condensed, linker removed
# [1] = target: GalNAc(b1-4)GlcNAc(b1-2)Man
# Method in brief: (§1)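 The Consortium for Functional Glycomics database supplied 3228 glycan arrays, of which those lacking an available protein sequence were dropped. The binding signal, a within-array Z-score, was averaged across arrays of the same protein sequence and across linkers. Negative scores can be read as non-binding.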
# [2] = target: GalNAc(b1-4)GlcNAc(b1-2)Man(a1-3)[GalNAc(b1-4)GlcNAc(b1-2)Man(a1-6)]Man(b1-4)GlcNAc(b1-4)GlcNAc
# Method in brief: as §1
# [3] = target: GalNAc(b1-4)GlcNAc(b1-3)GalNAc(b1-4)GlcNAc
# Method in brief: as §1
# GalNAc(b1-4)GlcNAc6S = target: GalNAc(b1-4)GlcNAc6S
# Method in brief: as §1
# GalNAc(b1-6)GalNAc = target: GalNAc(b1-6)GalNAc
# Method in brief: as §1
# GalNAc3S(b1-4)GlcNAc = target: GalNAc3S(b1-4)GlcNAc
# Method in brief: as §1
# GalNAc3S(b1-4)GlcNAc3S = target: GalNAc3S(b1-4)GlcNAc3S
# Method in brief: as §1
# [4] = target: GalNAc3S(b1-4)[Fuc(a1-3)]GlcNAc
# Method in brief: as §1
# GalNAc4S6S(b1-4)GlcNAc = target: GalNAc4S6S(b1-4)GlcNAc
# Method in brief: as §1
# GalNAc6S(b1-4)GlcNAc = target: GalNAc6S(b1-4)GlcNAc
# Method in brief: as §1
# Glc(a1-4)Glc = target: Glc(a1-4)Glc
# Method in brief: as §1
# [5] = target: Glc(a1-4)Glc(a1-4)Glc(a1-4)Glc
# Method in brief: as §1
# Glc(a1-6)Glc(a1-6)Glc = target: Glc(a1-6)Glc(a1-6)Glc
# Method in brief: as §1
# [6] = target: Glc(a1-6)Glc(a1-6)Glc(a1-6)Glc
# Method in brief: as §1
# Glc(b1-4)Glc = target: Glc(b1-4)Glc
# Method in brief: as §1
# Glc(b1-6)Glc = target: Glc(b1-6)Glc
# Method in brief: as §1
# GlcA(b1-3)Gal = target: GlcA(b1-3)Gal
# Method in brief: as §1
# GlcA(b1-3)GlcNAc = target: GlcA(b1-3)GlcNAc
# Method in brief: as §1
# GlcA(b1-6)Gal = target: GlcA(b1-6)Gal
# Method in brief: as §1
# [7] = target: GlcA3S(b1-3)Gal(b1-4)GlcNAc(b1-2)Man
# Method in brief: as §1
# [8] = target: GlcA3S(b1-3)Gal(b1-4)GlcNAc(b1-3)Gal(b1-4)Glc
# Method in brief: as §1
# [9] = target: GlcNAc(a1-3)Gal(b1-4)GlcNAc
# Method in brief: as §1
# [10] = target: GlcNAc(a1-4)Gal(b1-3)GlcNAc
# Method in brief: as §1
# [11] = target: GlcNAc(a1-4)Gal(b1-4)GalNAc
# Method in brief: as §1
# [12] = target: GlcNAc(a1-4)Gal(b1-4)GlcNAc
# Method in brief: as §1
# [13] = target: GlcNAc(a1-4)Gal(b1-4)GlcNAc(b1-3)Gal(b1-4)Glc
# Method in brief: as §1
# [14] = target: GlcNAc(a1-4)Gal(b1-4)GlcNAc(b1-3)Gal(b1-4)GlcNAc
# Method in brief: as §1
# [15] = target: GlcNAc(a1-4)Gal(b1-4)GlcNAc(b1-3)Gal(b1-4)GlcNAc(b1-3)Gal(b1-4)GlcNAc
# Method in brief: as §1
# [16] = target: GlcNAc(a1-4)Gal(b1-4)GlcNAc(b1-3)Gal(b1-4)[Fuc(a1-3)]GlcNAc(b1-3)Gal(b1-4)[Fuc(a1-3)]GlcNAc
# Method in brief: as §1
# [17] = target: GlcNAc(a1-6)Gal(b1-4)GlcNAc
# Method in brief: as §1
# [18] = target: GlcNAc(b1-2)Gal(b1-3)GalNAc
# Method in brief: as §1
# [19] = target: GlcNAc(b1-2)Man(a1-3)[GlcNAc(b1-2)Man(a1-6)]Man(b1-4)GlcNAc(b1-4)GlcNAc
# Method in brief: as §1
# [20] = target: GlcNAc(b1-2)Man(a1-3)[GlcNAc(b1-2)Man(a1-6)]Man(b1-4)GlcNAc(b1-4)[Fuc(a1-6)]GlcNAc
# Method in brief: as §1
# [21] = target: GlcNAc(b1-2)Man(a1-3)[GlcNAc(b1-4)][GlcNAc(b1-2)Man(a1-6)]Man(b1-4)GlcNAc(b1-4)GlcNAc
# Method in brief: as §1
# [22] = target: GlcNAc(b1-2)Man(a1-3)[GlcNAc(b1-4)][GlcNAc(b1-2)Man(a1-6)]Man(b1-4)GlcNAc(b1-4)[Fuc(a1-6)]GlcNAc
# Method in brief: as §1
# [23] = target: GlcNAc(b1-2)[GlcNAc(b1-4)]Man(a1-3)[GlcNAc(b1-2)Man(a1-6)]Man(b1-4)GlcNAc(b1-4)GlcNAc
# Method in brief: as §1
# [24] = target: GlcNAc(b1-2)[GlcNAc(b1-4)]Man(a1-3)[GlcNAc(b1-4)][GlcNAc(b1-2)Man(a1-6)]Man(b1-4)GlcNAc(b1-4)GlcNAc
# Method in brief: as §1
# [25] = target: GlcNAc(b1-2)[GlcNAc(b1-4)]Man(a1-3)[GlcNAc(b1-4)][GlcNAc(b1-2)[GlcNAc(b1-6)]Man(a1-6)]Man(b1-4)GlcNAc(b1-4)GlcNAc
# Method in brief: as §1
# [26] = target: GlcNAc(b1-2)[GlcNAc(b1-4)]Man(a1-3)[GlcNAc(b1-4)][GlcNAc(b1-2)[GlcNAc(b1-6)]Man(a1-6)]Man(b1-4)GlcNAc(b1-4)[Fuc(a1-6)]GlcNAc
# Method in brief: as §1
# [27] = target: GlcNAc(b1-2)[GlcNAc(b1-6)]Man(a1-6)[GlcNAc(b1-2)Man(a1-3)]Man(b1-4)GlcNAc(b1-4)GlcNAc
# Method in brief: as §1
# [28] = target: GlcNAc(b1-2)[GlcNAc(b1-6)]Man(a1-6)[GlcNAc(b1-2)Man(a1-3)]Man(b1-4)GlcNAc(b1-4)[Fuc(a1-6)]GlcNAc
# Method in brief: as §1
# [29] = target: GlcNAc(b1-2)[GlcNAc(b1-6)]Man(a1-6)[GlcNAc(b1-4)][GlcNAc(b1-2)Man(a1-3)]Man(b1-4)GlcNAc(b1-4)GlcNAc
# Method in brief: as §1
# GlcNAc(b1-3)Fuc = target: GlcNAc(b1-3)Fuc
# Method in brief: as §1
# GlcNAc(b1-3)Gal = target: GlcNAc(b1-3)Gal
# Method in brief: as §1
# [30] = target: GlcNAc(b1-3)Gal(b1-3)GalNAc
# Method in brief: as §1
binder,measurement,setting,value
LngA (Escherichia coli) (protein) MLSVYNRTQKFKAEARKKIAKYHELRKQRGMSLLEVIIVLGIIGTIAAGVVILAQRAFDSRAVTDLVTNTNTVRVRMKDAYQRDGKYPDFVDPLSLTANTIKTDTSGIPAAQLVQLGKITPDEVRNNISGDFIAIGGALTSNGAQVKKGFAIELNGLSQEQCRSILGQVGNNWEYVAIGTSASGSYAMTATGVDMSVAASTTVLRSLGNNGQTTLTADKILSTCTAQVNSITLGSR,glycan array binding signal (z-score),[1],0.194
same,glycan array binding signal (z-score),[2],-0.153
same,glycan array binding signal (z-score),[3],-0.431
same,glycan array binding signal (z-score),GalNAc(b1-4)GlcNAc6S,-0.467
same,glycan array binding signal (z-score),GalNAc(b1-6)GalNAc,-0.538
same,glycan array binding signal (z-score),GalNAc3S(b1-4)GlcNAc,-0.507
same,glycan array binding signal (z-score),GalNAc3S(b1-4)GlcNAc3S,-0.494
same,glycan array binding signal (z-score),[4],-0.315
same,glycan array binding signal (z-score),GalNAc4S6S(b1-4)GlcNAc,-0.449
same,glycan array binding signal (z-score),GalNAc6S(b1-4)GlcNAc,-0.007
same,glycan array binding signal (z-score),Glc(a1-4)Glc,0.436
same,glycan array binding signal (z-score),[5],-0.132
same,glycan array binding signal (z-score),Glc(a1-6)Glc(a1-6)Glc,0.075
same,glycan array binding signal (z-score),[6],0.139
same,glycan array binding signal (z-score),Glc(b1-4)Glc,0.718
same,glycan array binding signal (z-score),Glc(b1-6)Glc,0.811
same,glycan array binding signal (z-score),GlcA(b1-3)Gal,-0.018
same,glycan array binding signal (z-score),GlcA(b1-3)GlcNAc,-0.475
same,glycan array binding signal (z-score),GlcA(b1-6)Gal,0.408
same,glycan array binding signal (z-score),[7],-0.387
same,glycan array binding signal (z-score),[8],-0.286
same,glycan array binding signal (z-score),[9],-0.546
same,glycan array binding signal (z-score),[10],-0.412
same,glycan array binding signal (z-score),[11],-0.157
same,glycan array binding signal (z-score),[12],-0.505
same,glycan array binding signal (z-score),[13],-0.545
same,glycan array binding signal (z-score),[14],-0.601
same,glycan array binding signal (z-score),[15],-0.459
same,glycan array binding signal (z-score),[16],0.38
same,glycan array binding signal (z-score),[17],-0.521
same,glycan array binding signal (z-score),[18],-0.458
same,glycan array binding signal (z-score),[19],-0.403
same,glycan array binding signal (z-score),[20],-0.224
same,glycan array binding signal (z-score),[21],-0.263
same,glycan array binding signal (z-score),[22],-0.532
same,glycan array binding signal (z-score),[23],-0.462
same,glycan array binding signal (z-score),[24],-0.517
same,glycan array binding signal (z-score),[25],-0.476
same,glycan array binding signal (z-score),[26],-0.632
same,glycan array binding signal (z-score),[27],-0.408
same,glycan array binding signal (z-score),[28],-0.315
same,glycan array binding signal (z-score),[29],-0.563
same,glycan array binding signal (z-score),GlcNAc(b1-3)Fuc,-0.408
same,glycan array binding signal (z-score),GlcNAc(b1-3)Gal,-0.497
same,glycan array binding signal (z-score),[30],0.147
